# Test results reported in publication PMC13083723 (Patterns, 2026).
# The whole screen tested about 5,400 compounds, of which about 190 (3.5%) showed an effect of 50% or more. Some of the results follow. Non-standard residues stand in square brackets, D forms with d. Residues, ends and D or L forms follow the SMILES beside them.
# Test system: Vero-E6
# Test: primary screen, phospholipidosis by LipidTOX staining; higher = more effect of the substance
# Details: 10 µM
# How it was run: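 Single-concentration screen at 10 μM, with DMSO 0.1 v/v % and amiodarone 10 μM as controls. Read-out is LipidTOX Red phospholipid staining, which tolerates aldehyde fixation, in Vero-E6 cells.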
row,SMILES,result_ITMP [%]
1,CNC(=O)c1c(-c2ccc(F)cc2)oc2cc(N(CCO)S(C)(=O)=O)c(C3CC3)cc12,0.51
2,[N-]=[N+]=N[C@]1(CO)O[C@@H](n2ccc(N)nc2=O)[C@H](O)[C@@H]1O,0.35
3,C[C@](N)(Cc1ccc(O)cc1)C(=O)O,-6.58
4,COc1cc2c(cc1OC)[C@@H]1CC(=O)[C@@H](CC(C)C)CN1CC2,6.09
5,CC(C)NCC(O)COc1cccc2ccccc12 (racemic),25.5
6,Cc1nc(Cn2cnc3c2c(=O)n(C)c(=O)n3C)no1,-10.1
7,CS(=O)(=O)c1ccc([C@@H](O)[C@@H](CF)NC(=O)C(Cl)Cl)cc1,2.58
8,Oc1ccc(C2CNCCc3c2cc(O)c(O)c3Cl)cc1 (stereo not drawn),2.86
9,CC(C(=O)O)c1cccc(Oc2ccccc2)c1 (stereo not drawn),-1.09
10,CC1(C)S[C@@H]2[C@H](N)C(=O)N2[C@H]1C(=O)O,0.65
11,CC(C)=CCOc1ccc(/C=C/C(=O)c2ccc(OCC=C(C)C)cc2OCC(=O)O)cc1,-7.43
12,C[C@H](N)Cn1ccc2cc(F)c(Cl)cc21,50.7
13,COc1cc(C(=S)N2CCOCC2)ccc1O,-1.12
14,O=C1OC(c2ccc(O)cc2)(c2ccc(O)cc2)c2ccccc21,-3.7
15,C[C@H](Nc1ncnc2[nH]cnc12)c1cc2ccc(F)cc2nc1-c1ccccn1 [R4A_0002240_001 / SPE_K21077415],-0.96
16,CNc1cc2c(Nc3cccc(Br)c3)ncnc2cn1,-7.32
17,CCCc1ncc(C[n+]2ccccc2C)c(N)n1,-2.82
18,O=C1NC(=O)/C(=C/c2ccc3nccc(-c4ccncc4)c3c2)S1,-4.06
19,Cc1c(C)c2c(c(C)c1OC(=O)CCC(=O)OCCOCCOCCOCCOCCOCCOCCOCCOCCOCCOCCOCCOCCOCCOCCOCCOCCOCCOCCOCCOCCOCCO)CCC(C)(CCCC(C)CCCC(C)CCCC(C)C)O2 (stereo not drawn),-2.89
20,CN1Cc2c(C(=O)OC(C)(C)C)ncn2-c2ccsc2C1=O,-0.6
21,C[C@]12CCC(=O)C=C1C=CC1C2CC[C@@]2(C)C1CC[C@@]2(O)CCC(=O)[O-] (stereo partly drawn),-3.36

row,SMILES,result_ITMP [%]
1,CC1(C)S[C@@H]2[C@H](NC(=O)[C@H](NC(=O)N3CCN(S(C)(=O)=O)C3=O)c3ccccc3)C(=O)N2[C@H]1C(=O)[O-],-2.91
2,O=C(O)c1ccc(/C=C2\SC(=S)N(c3cccc(C(F)(F)F)c3)C2=O)cc1,0.16
3,N=C(N)Nc1ccc2[nH]c3c(c2c1)C[C@@]1(O)C2Cc4ccc(O)c5c4[C@@]1(CCN2CC1CC1)[C@H]3O5,-0.46
4,N#C/C(=C\c1ccc(O)c(O)c1)C(=O)Nc1ccccc1,3.7
5,COc1cc(-n2cnc3cc(-c4ccc(Cl)cc4)sc3c2=O)ccc1OCCN1CCCC1,28
6,O=CN1CCC(C(=O)NCCN2CCC(=C3c4ccccc4C=Cc4ccccc43)CC2)CC1,46.9
7,CN1C(=O)COc2c(C(=O)NC3CN4CCC3CC4)cc(Cl)cc21 (stereo not drawn),-4.31
8,O=c1ccc2c(OCCCCOc3ccccc3)c3ccoc3cc2o1,-1.22
9,CC(=O)OCC(=O)NCCCOc1cccc(CN2CCCCC2)c1,-8.47
10,CCCCCCCCC(=O)N[C@H](CN1CCCC1)[C@H](O)c1ccc2c(c1)OCCO2,63.4
11,CCn1cc(C(=O)O)c(=O)c2cc(F)c(N3CCNCC3)nc21,-7.56
12,C[C@H](NCc1ccc(OCc2cccc(F)c2)cc1)C(N)=O,16
13,O=C(Oc1ccc([N+](=O)[O-])cc1)N1CCC(C(O)(c2ccc3c(c2)OCO3)c2ccc3c(c2)OCO3)CC1,-11.8
14,CCCCN1[C@@H]2CC[C@H]1C[C@@H](OC(c1ccc(F)cc1)c1ccc(F)cc1)C2,51.4
15,Cc1ccc(C(=O)Nc2ccc(CN3CCN(C)CC3)c(C(F)(F)F)c2)cc1C#Cc1cnc2[nH]ncc2c1,6.57
16,O=C(Nc1ccc(S(=O)(=O)Nc2ccccc2Cl)c(Cl)c1)c1ccccn1,0.99
17,C[C@@H]([C@@H](O)c1ccc(O)cc1)N1CCC(O)(c2ccccc2)CC1,-7
18,C[C@@H]1CCO[C@H]2Cn3cc(C(=O)NCc4ccc(F)cc4F)c(=O)c(O)c3C(=O)N12,-4.23
19,Oc1ccc(-c2nc(-c3ccc(F)cc3)c(-c3ccncc3)[nH]2)cc1,-1.56
20,N#CCc1ccccc1C#Cc1ccc(CCC(=O)O)c(F)c1,-8.03
21,COc1ccc(C(=O)/C(Cc2cc(OC)c(OC)c(OC)c2)=C(\C(=O)[O-])c2ccc3c(c2)OCO3)cc1,-3.57

row,SMILES,result_ITMP [%]
1,CCCCCCCC(=O)OCC(O)CO (stereo not drawn),-6.16
2,Cc1cc(-c2ccc(/N=N/c3ccc4c(S(=O)(=O)[O-])cc(S(=O)(=O)[O-])c(N)c4c3O)c(C)c2)ccc1/N=N/c1ccc2c(S(=O)(=O)[O-])cc(S(=O)(=O)[O-])c(N)c2c1O,10.1
3,Cc1ccc(-c2ncc[nH]2)cc1NC(=O)c1ccc(OCc2ccccn2)cc1,4.64
4,O=C(NC[C@H](O)CO)c1ccncc1Nc1ccc(I)cc1F,1.33
5,O=C(O)c1ccc2cc(-c3ccc(O)c(C45CC6CC(CC(C6)C4)C5)c3)ccc2c1,-9.79
6,COc1ccc2c(c1)[C@]13CCCC[C@@H]1[C@H](C2)N(C)CC3,7.4
7,Cc1ccc(-n2nc(C(C)(C)C)cc2NC(=O)NCc2cc(F)ccc2Oc2ccc3c(cnn3CCO)c2)cc1,6.1
8,CN(C)C(=O)n1nnnc1Cc1ccc(-c2ccccc2)cc1,9.23
9,CCOc1cc(C(=O)Nc2ccc(Cl)c(-c3nc4ccccc4[nH]3)c2)cc(OCC)c1OCC,1.65
10,Cc1cc(N2CCOCC2)cc2nc(-c3c(NC[C@@H](O)c4cccc(Cl)c4)cc[nH]c3=O)[nH]c12,-0.86
11,CC1NC(=O)C(N)CNC(=O)C(C2CCNC(=N)N2)NC(=O)/C(=C\NC(N)=O)NC(=O)C(CNC(=O)CC(N)CCCN)NC1=O (stereo not drawn),6.88
12,CC[C@H](C)[C@H](NC(=O)[C@H](Cc1ccc(O)cc1)NC(=O)[C@@H](NC(=O)[C@H](CCCNC(=N)N)NC(=O)[C@@H](N)CC(=O)O)C(C)C)C(=O)N[C@@H](Cc1c[nH]cn1)C(=O)N1CCC[C@H]1C(=O)O,-0.26
13,O=c1n(CCCN2CCN(c3cccc(Cl)c3)CC2)nc2ccccn12,-2.31
14,CC(=O)NCCCCCC(=O)O,-2.37
15,O=C(O)c1cc(=O)[nH]c(=O)[nH]1,-6.85
16,Cc1ccccc1C(C(=O)NC1CCCCC1)N(C(=O)Cn1ccnc1C)c1cccc(F)c1 (stereo not drawn),-6.57
17,COc1ccc2cc([C@H](C)C(=O)O)ccc2c1,-1.35
18,N#Cc1cc(CN2CCC(Nc3ncnc4sc(Cl)cc34)CC2)ccc1F,18.7
19,O=C(O)/C=C1\CCCc2ccccc2C1O (stereo not drawn),-0.78
20,COc1cc(/C=C2\CCCN([C@@H](C)c3ccc(F)cc3)C2=O)ccc1-n1cnc(C)c1,3.14
21,C[C@]12CCC(=O)C=C1[C@@H]1C[C@@H]1[C@H]1[C@@H]3[C@@H]4C[C@@H]4[C@@]4(CCC(=O)O4)[C@@]3(C)CC[C@@H]12,7.83

row,SMILES,result_ITMP [%]
1,C[N+](C)(C)CC(O)CC(=O)O (stereo not drawn),-4.35
2,N=C(N)c1ccc(/N=N/Nc2ccc(C(=N)N)cc2)cc1,17.5
3,C=CCN1CC[C@]23c4c5ccc(O)c4O[C@H]2[C@@H](OCCOCCOCCOCCOCCOCCOCCOC)CC[C@@]3(O)[C@H]1C5,-0.14
4,CS(=O)(=O)Nc1c(O)ccc2c1CCCC2C1=NCCN1 (stereo not drawn),-5.3
5,CCCCn1c(=O)c2[nH]c(C34CC5CC(CC3C5)C4)nc2n(CCCO)c1=O,0.45
6,CC(C)C[C@H](NC(=O)N1CCCCCC1)C(=O)N[C@H](Cc1cn(C)c2ccccc12)C(=O)N[C@H](Cc1ccccn1)C(=O)O,-2.08
7,O=C(O)c1ccc2nc(-c3cc(Cl)cc(Cl)c3)oc2c1,0.19
8,OCCn1cc(-c2cnc3nnn(Cc4ccc5ncccc5c4)c3n2)cn1,0.98
9,CC1=C(/C=C/C(C)=C/C=C/C(C)=C/CO)C(C)(C)CCC1,-1.23
10,C[C@H](NC(=O)[C@@H](Cc1c[nH]c2ccccc12)NC(=O)[C@@H](N)Cc1cnc[nH]1)C(=O)N[C@@H](Cc1c[nH]c2ccccc12)C(=O)N[C@H](Cc1ccccc1)C(=O)N[C@@H](CCCCN)C(N)=O (H-H[dW]AW[dF]K-NH2),-2.53
11,Cc1ncc([N+](=O)[O-])n1CC(C)O (stereo not drawn),-1.93
12,CCNCc1cc(C(C)(C)C)c(O)c(C(C)(C)C)c1,9.53
13,Cc1c(NC(=O)c2cc3c(s2)CCCC3)cccc1-c1cn(C)c(=O)c(Nc2ccc(C3C(=O)N(C)CCN3C)cc2)n1 (racemic),-0.03
14,Cc1[nH]c(=O)c(C#N)cc1-c1ccc2nccn2c1,-2.55
15,CN(C(=O)Cc1ccc(Cl)c(Cl)c1)[C@H](CN1CCCC1)c1ccccc1,53.5
16,COC[C@H]1OC(=O)c2coc3c2[C@@]1(C)C1=C(C3=O)[C@@H]2CCC(=O)[C@@]2(C)C[C@H]1OC(C)=O,-2.98
17,NC(=O)c1cccc(-c2cccc(OC(=O)NC3CCCCC3)c2)c1,-5.98
18,CC(=O)O[C@H]1C(=O)[C@@]2(C)[C@H]([C@H](OC(=O)c3ccccc3)[C@]3(O)C[C@H](OC(=O)[C@H](O)[C@@H](NC(=O)c4ccccc4)c4ccccc4)C(C)=C1C3(C)C)[C@]1(OC(C)=O)CO[C@@H]1C[C@@H]2O,-1
